# Results reported in PMC4336329 (PLoS ONE, 2015).
# Hit rate of the full screen: of about 310,000 compounds, about 14,000 (4.5%) showed an effect of 50% or more. Effects have a minus sign here. The list shows a part of the results.
# Target: human ether-à-go-go-related gene (hERG) potassium channel (human, UniProt Q12809)
# Assay: primary screen, population patch clamp on CHO cells stably expressing hERG
# 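Note: peak tail current of the secondary pulse compared with the same well before compound.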
# human ether-à-go-go-related gene (hERG) potassium channel, sequence (Q12809 whole entry, looked up): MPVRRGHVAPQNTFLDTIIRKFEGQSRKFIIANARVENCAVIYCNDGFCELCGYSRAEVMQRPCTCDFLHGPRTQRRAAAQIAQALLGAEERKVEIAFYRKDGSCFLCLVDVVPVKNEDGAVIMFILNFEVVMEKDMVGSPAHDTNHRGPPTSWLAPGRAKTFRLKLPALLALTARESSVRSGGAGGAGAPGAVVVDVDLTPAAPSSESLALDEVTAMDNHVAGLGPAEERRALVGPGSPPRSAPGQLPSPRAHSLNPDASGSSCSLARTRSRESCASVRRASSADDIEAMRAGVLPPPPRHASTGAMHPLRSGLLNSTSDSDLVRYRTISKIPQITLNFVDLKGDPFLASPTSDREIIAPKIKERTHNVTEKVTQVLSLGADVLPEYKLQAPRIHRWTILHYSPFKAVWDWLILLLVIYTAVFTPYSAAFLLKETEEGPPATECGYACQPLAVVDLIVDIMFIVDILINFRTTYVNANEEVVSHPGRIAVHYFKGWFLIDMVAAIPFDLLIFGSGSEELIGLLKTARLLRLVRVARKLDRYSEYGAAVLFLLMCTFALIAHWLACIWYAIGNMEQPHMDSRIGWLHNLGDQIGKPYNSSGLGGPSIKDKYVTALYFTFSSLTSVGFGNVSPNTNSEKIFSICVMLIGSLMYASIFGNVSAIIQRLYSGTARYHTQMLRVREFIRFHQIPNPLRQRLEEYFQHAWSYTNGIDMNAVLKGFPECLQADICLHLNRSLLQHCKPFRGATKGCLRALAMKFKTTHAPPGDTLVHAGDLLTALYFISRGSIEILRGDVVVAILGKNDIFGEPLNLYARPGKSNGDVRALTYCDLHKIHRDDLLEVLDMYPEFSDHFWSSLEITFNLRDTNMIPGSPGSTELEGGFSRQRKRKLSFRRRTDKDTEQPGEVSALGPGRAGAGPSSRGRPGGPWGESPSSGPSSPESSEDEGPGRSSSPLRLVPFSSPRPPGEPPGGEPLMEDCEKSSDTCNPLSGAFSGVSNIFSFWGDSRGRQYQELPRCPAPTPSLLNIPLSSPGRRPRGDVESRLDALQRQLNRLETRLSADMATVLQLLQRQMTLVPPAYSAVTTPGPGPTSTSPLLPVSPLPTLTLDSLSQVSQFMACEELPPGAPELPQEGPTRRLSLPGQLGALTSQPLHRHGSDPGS
row,SMILES,"hERG current change (%, negative = inhibition) at 10uM"
1,CCS(=O)(=O)n1nc(-c2ccccc2)nc1SC,-6%
2,COc1ccc(-c2ccc(-c3noc(-c4ccccc4OC)n3)c(OC)n2)cc1,20.9%
3,Cc1cc(NC(=O)c2cc(-c3ccco3)on2)nn1Cc1ccc(Cl)cc1,-31.8%
4,CCn1cc(C(=O)N2CCN(c3ccccn3)CC2)c2cc(OC)c(OC)cc2c1=O,-14.4%
5,Cc1ccc(C2=NCC(=O)N(CC(=O)N3CCCCC3)c3sc(C)c(C)c32)cc1,-15.8%
6,Cc1ccc(-c2ccccc2)n1-c1ccc(C(=O)O)cc1,-0.962%
7,COCCNC(=O)C1CCCN(c2ncccn2)C1 (stereo not shown),9.29%
8,COc1cc(/C=C2/C(=O)c3cccc([N+](=O)[O-])c3C2=O)c(Br)cc1O,6.37%
9,COc1ccc(C(=O)O/N=C(\N)c2ccccc2)c(OC)c1,-7.56%
10,Cc1cc(C)nc(SCC(=O)NC2=NC(=O)C(C)S2)n1 (stereo not shown),-2.95%
11,Cc1noc(NS(=O)(=O)c2ccc(NC(=O)CSc3nnc(-c4ccccc4)n3C3CCCCC3)cc2)c1C,-19.3%
12,Cc1ccc(S(=O)(=O)N2CCN=C2SCc2ccc(Cl)c(Cl)c2)cc1,9.21%
13,CCCCOc1ccc([N+](=O)[O-])cc1C(=O)O,24.9%
14,CC(=O)Nc1scc(C)c1-c1nc2ccccc2s1,1.39%
15,Cc1nnc(SCC(=O)Nc2cc(C(F)(F)F)ccc2Cl)n1C,3.51%
16,COc1cc(/C=N/NC(=O)c2ccncc2)c([N+](=O)[O-])cc1OC,6.83%
17,Cn1c(=O)c2c(nc(SCCCC#N)n2Cc2ccccc2F)n(C)c1=O,-9.16%
18,O=C(Nc1ccc(N2CCOCC2)cc1)C1CCN(S(=O)(=O)c2ccccc2F)CC1,4.41%
19,O=C(NC(=S)N(CCO)Cc1ccccc1)c1cc(Br)ccc1Cl,3.48%
20,COC(=O)c1sccc1NC(=S)N1CCN(c2cccc(C)c2C)CC1,-14.2%
21,O=C(NCC(c1cccnc1)N1CCOCC1)Oc1ccccc1 (stereo not shown),4.11%
22,Cc1nnc(SCCC(C)C)[nH]c1=O,16.2%
23,CC(=O)c1ccccc1Oc1cc(NN2CCCCC2)c([N+](=O)[O-])cc1[N+](=O)[O-],-7.24%
24,CC(=O)OCn1ncc(N2CCOCC2)c(Br)c1=O,16.5%
25,COC(=O)Nc1ccc(S(=O)(=O)N2CCCc3ccccc32)cc1,8.63%
